# Measured values taken from PubChem BioAssay AID360 (National Center for Advancing Translational Sciences (NCATS), 2006).
# About 550 (1.1%) of roughly 48,000 compounds were called active. Another 4% or so got no clear call; they are omitted. Rule as the data show it: active = potency below about 15 µM; inconclusive = mostly about 16 µM to 33 µM; inactive = weaker than that. This is one part of the list.
# Target: Lysosomal acid glucosylceramidase (Homo sapiens) (UniProt P04062)
# Test: Glucocerebrosidase;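 also: the screen sought inhibitors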
# Settings: purified enzyme, resorufin glucoside fluorescence (screen aimed at inhibitors), 20 min
# Procedure, shortened: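 Wild-type enzyme at 0.2 nM final in 50mM citric acid/KH2PO4, 10mM sodium taurocholate, 0.01% tween-20, pH 5.9, with resorufin beta-D-glucopyranoside at 30 uM final. Compounds titrated, 20 min at RT, red fluorescence read; AC50 from titration.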
# Potency is read from the fitted curve at half-maximal effect.
# Chain of UniProt P04062 (P04062 whole entry, looked up): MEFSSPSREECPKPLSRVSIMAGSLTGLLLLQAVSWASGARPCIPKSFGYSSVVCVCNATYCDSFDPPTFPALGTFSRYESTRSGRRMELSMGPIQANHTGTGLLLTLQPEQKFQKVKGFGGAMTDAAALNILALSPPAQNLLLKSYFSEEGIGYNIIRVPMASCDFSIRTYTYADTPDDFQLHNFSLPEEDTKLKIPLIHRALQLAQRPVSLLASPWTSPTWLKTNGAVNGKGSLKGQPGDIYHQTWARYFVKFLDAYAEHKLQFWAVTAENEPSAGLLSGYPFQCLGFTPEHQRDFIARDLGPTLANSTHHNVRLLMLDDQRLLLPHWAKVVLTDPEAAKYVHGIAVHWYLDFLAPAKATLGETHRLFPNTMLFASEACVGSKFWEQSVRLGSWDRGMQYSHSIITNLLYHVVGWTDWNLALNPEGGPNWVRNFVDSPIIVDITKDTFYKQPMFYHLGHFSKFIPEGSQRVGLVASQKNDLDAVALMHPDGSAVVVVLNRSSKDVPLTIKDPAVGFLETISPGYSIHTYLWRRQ
row,Compound,Potency
1,COCc1nc(-c2cc(Br)ccc2OC)no1,inactive: > 76.9 µM
2,COC(=O)C1CCCN1C(=O)c1cccs1 (stereo not drawn),inactive: > 76.9 µM
3,COc1ccc(CCNC(=O)c2ccc(N3CCCC3=O)cc2)cc1OC,inactive: > 76.9 µM
4,CCOC(=O)c1cccc(NC(=O)Cn2c(CC(=O)NC)nc3ccccc32)c1,inactive: > 76.9 µM
5,Cc1ccc(-n2nc3c(c2NC(=O)c2ccc(S(=O)(=O)N4CCOCC4)cc2)CSC3)c(C)c1,inactive: > 76.9 µM
6,CC(=O)c1ccc(OCCCC(=O)OCC(=O)N2CCN(c3ccccc3)CC2)cc1,inactive: > 76.9 µM
7,COC(=O)c1cc(COC(=O)c2ccc(OC)c(S(=O)(=O)N3CCCC3)c2)oc1C,inactive: > 76.9 µM
8,COC(=O)c1cc(NC(=O)C2COc3ccccc3O2)ccc1Cl (stereo not drawn),inactive: > 76.9 µM
9,Cc1cccn2c(=O)c3cc(C(=O)N4CCN(c5ccccc5)CC4)n(C)c3nc12,inactive: > 76.9 µM
10,COc1cccc(OC)c1-c1nnc(-c2cn(C)c3ccccc23)o1,inactive: > 76.9 µM
11,CCN(CC)C(=O)CN(c1cc(Cl)ccc1OC)S(C)(=O)=O,inactive: > 76.9 µM
12,COc1cccc(NC(=O)CSc2nc(N)cc(N)n2)c1,inactive: > 76.9 µM
13,Cc1oc2cc3c(C(=O)N4CCCCC4)c(C)oc3cc2c1C(=O)N1CCCCC1,inactive: > 76.9 µM
14,COc1ccccc1N1CCN(CC(O)COc2ccc3c(C)cc(=O)oc3c2)CC1 (stereo not drawn),inactive: > 76.9 µM
15,COc1ccc(CCNC(=O)CSc2nnc(-c3ccc(F)cc3)o2)cc1OC,inactive: > 76.9 µM
16,Cc1occc1C(=O)N1CCN(C(c2ccccc2)c2ccccc2)CC1,inactive: > 76.9 µM
17,Fc1ccc(OCc2nn3c(Cn4nnc5ccccc54)nnc3s2)cc1,inactive: > 76.9 µM
18,CCOC(=O)CNC(=O)CSc1nnc(Cn2c(=O)sc3ccccc32)n1-c1ccccc1C,inactive: > 76.9 µM
19,COc1ccc(C2CC(=O)C3=C(C2)Nc2ccccc2N(C(=O)C2CC2)C3c2cccnc2)cc1OC (stereo not drawn),inactive: > 76.9 µM
20,C=CCN(CC(=O)NCc1ccccc1)C(=O)c1csnn1,inactive: > 76.9 µM

row,Compound,Potency
1,CCOc1ccc(NC(=O)CN2CCN(S(=O)(=O)c3ccc(Cl)cc3)CC2)cc1,inactive: > 76.9 µM
2,Cc1cc(-c2nnc(SCC(=O)N3C(C)CCCC3C)o2)no1 (stereo not drawn),inactive: > 76.9 µM
3,N#CC1=C(N)OC2=C(C(=O)CCC2)C1c1ccncc1 (stereo not drawn),inactive: > 76.9 µM
4,Cn1c(COc2ccc(Cl)cc2)nc2ccccc2c1=O,inactive: > 76.9 µM
5,CCN(CCCNC(=O)CNC(=O)Cn1cnc2ccccc2c1=O)c1ccccc1,inactive: > 76.9 µM
6,CC1(C)NC(=O)N(CCCCOc2cccc(C(F)(F)F)c2)C1=O,inactive: > 76.9 µM
7,Cc1ccccc1-n1nnnc1SCc1ncc(-c2ccccc2)o1,inactive: > 76.9 µM
8,CCC1CCCCN1C(=O)COC(=O)c1cc2ccccc2cc1O (stereo not drawn),inactive: > 76.9 µM
9,Cc1[nH]nc2ncc(C(=O)c3ccccc3O)cc12,inactive: > 76.9 µM
10,O=C(Oc1ccc(Cl)c2cccnc12)N1CCOCC1,inactive: > 76.9 µM
11,c1nc(N2CCC3(CC2)OCCO3)c2c3c(sc2n1)CCCC3,inactive: > 76.9 µM
12,CCOC(=O)N1CCC2(O)CCCCC2C1c1ccc(F)cc1 (stereo not drawn),inactive: > 76.9 µM
13,Clc1ccc(Cn2ncc3c(N4CCCC4)ncnc32)cc1,inactive: > 76.9 µM
14,O=c1cc(CO)oc(C(Nc2ccccn2)c2ccc(C(F)(F)F)cc2)c1O (stereo not drawn),inactive: > 76.9 µM
15,COC(=O)CSc1nc2ccccc2nc1SCC(=O)OC,inactive: > 76.9 µM
16,Cc1cc(C)c(-c2cc(C(F)(F)F)no2)c(=O)[nH]1,inactive: > 76.9 µM
17,CCN(CC)CCn1c(NCc2ccc(OC)cc2)nc2ccccc21,inactive: > 76.9 µM
18,CCc1nnc(NC(=O)c2ccc(S(=O)(=O)N(CC)Cc3ccccc3)cc2)o1,active: 13.5 µM
19,O=C(O)C1C2C=CC(O2)C1C(=O)Nc1ccc(S(=O)(=O)N2CCc3ccccc32)cc1 (stereo not drawn),inactive: > 76.9 µM
20,CCCCCCn1c(=O)c(-c2nc3ccccc3c(=O)[nH]2)c(O)c2ccccc21,inactive: > 76.9 µM

row,Compound,Potency
1,Cc1ccc(C)c(OCCCN2CCCC2)c1,inactive: > 15.4 µM
2,COc1ccc(-c2ccc(-c3noc(-c4ccccc4)n3)c(OC)n2)cc1,active: 4.95 µM
3,CSc1nc(SC)c2c3c(oc2n1)COC(C)(C)C3,inactive: > 76.9 µM
4,O=C(Nc1cc(C(F)(F)F)ccc1N1CCOCC1)c1cccnc1,inactive: > 76.9 µM
5,CN(C)CCn1c(C(=O)O)cc2ccccc21,inactive: > 76.9 µM
6,N#CC12CCCCC1CC1CCCCC1(C#N)N2CCO (stereo not drawn),inactive: > 76.9 µM
7,Cc1ccc(NC2CC(=O)N(c3ccc(N4CCCCC4)cc3)C2=O)cc1 (stereo not drawn),inactive: > 76.9 µM
8,Cc1ccc(C)n1NC(=O)c1cccs1,inactive: > 76.9 µM
9,CCOC(=O)N1CCC(NC(=O)c2cc3c(-c4cccc(OC)c4)nn(C)c3s2)CC1,inactive: > 76.9 µM
10,CCOC(=O)C1CCCN(C(=O)Cc2c(C(=O)O)[nH]c3ccccc23)C1 (stereo not drawn),inactive: > 76.9 µM
11,COc1ccc(OC)c(S(=O)(=O)N2CCCCC2C(=O)N2CCN(c3ccccn3)CC2)c1 (stereo not drawn),inactive: > 76.9 µM
12,C=CCNC(=O)c1ccncc1,inactive: > 76.9 µM
13,Cc1cc(C)cc(NS(=O)(=O)c2ccc3[nH]c(=O)[nH]c3c2)c1,inactive: > 15.4 µM
14,Nc1nnc(CC(=O)N2CCCCC2)s1,inactive: > 76.9 µM
15,N#Cc1c(NC(=O)c2cc(-n3cnnc3)ccc2Cl)sc2c1CCCC2,inactive: > 76.9 µM
16,O=C(Nc1nc2n(n1)C(c1ccccc1)C=C(c1ccccc1)N2)c1ccco1 (stereo not drawn),inactive: > 76.9 µM
17,COCCNC(=O)C(OC(=O)c1ccco1)c1ccccc1OC (stereo not drawn),inactive: > 76.9 µM
18,c1coc(-c2nc(-c3ccco3)c(-c3ccco3)nc2-c2ccco2)c1,inactive: > 15.4 µM
